# Measured values published in the supplement of paper PMC8728848.
# The other results are listed elsewhere or left out.
# B1: Gal 8 (Mus musculus), Q9JL15 (protein)
# chain: MGGSHHHHHHGMASMLSLNNLQNIIYNPIIPYVGTITEQLKPGSLIVIRGHVPKDSERFQVDFQLGNSLKPRADVAFHFNPHFKRSSCIVCNTLTQEKWGWEEITYDMPFRKEKSFEIVFMVLKNKFQVAVNGRHVLLYAHRISPEQIDTVGIYGKVNIHSIGFRFSSASALPHTLGDLQSMETSALGLTQINRENIQKPGKLQLSLPFEARLNASMGPGRTVVIKGEVNTNARSFNVDLVAGKTRDIALHLNPHLNVKAFVRNSFLQDAWGEEERNITCFPFSSGMYFEMIIYCDVREFKVAINGVHSLEYKHRFKDLSSIDTLSVDGDIRLLDVRSW
# Columns and labels:
# Test in all cases: glycan array binding signal (z-score within array); higher = stronger binding
# Settings in all cases: glycan notation: IUPAC condensed, linker removed; mutation: R82H, R255H
# [1] = target: Neu5Ac(a2-6)Gal(b1-4)GlcNAc(b1-2)Man(a1-3)[GlcNAc(b1-4)][Neu5Ac(a2-6)Gal(b1-4)GlcNAc(b1-2)Man(a1-6)]Man(b1-4)GlcNAc(b1-4)GlcNAc
# How it was run: (§1)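 Glycan array data were curated from 3228 arrays in the Consortium for Functional Glycomics database and kept only where the protein sequence was available. Glycan names were converted to IUPAC-condensed notation, and columns mapping to the same glycan were averaged. The binding signal is a within-array Z-score, averaged across arrays of the same protein sequence at different concentrations or buffers and across linkers. Negative Z-scores can be read as non-binding.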
# [2] = target: Neu5Ac(a2-6)Gal(b1-4)GlcNAc(b1-2)Man(a1-3)[Man(a1-6)]Man(b1-4)GlcNAc(b1-4)GlcNAc
# How it was run: as §1
# [3] = target: Neu5Ac(a2-6)Gal(b1-4)GlcNAc(b1-2)Man(a1-3)[Neu5Ac(a2-3)Gal(b1-4)GlcNAc(b1-2)Man(a1-6)]Man(b1-4)GlcNAc(b1-4)GlcNAc
# How it was run: as §1
# [4] = target: Neu5Ac(a2-6)Gal(b1-4)GlcNAc(b1-2)Man(a1-3)[Neu5Ac(a2-6)Gal(b1-4)GlcNAc(b1-2)Man(a1-6)]Man(b1-4)GlcNAc(b1-4)GlcNAc
# How it was run: as §1
# [5] = target: Neu5Ac(a2-6)Gal(b1-4)GlcNAc(b1-2)Man(a1-3)[Neu5Ac(a2-6)Gal(b1-4)GlcNAc(b1-2)Man(a1-6)]Man(b1-4)GlcNAc(b1-4)[Fuc(a1-6)]GlcNAc
# How it was run: as §1
# [6] = target: Neu5Ac(a2-6)Gal(b1-4)GlcNAc(b1-2)Man(a1-6)Man(b1-4)GlcNAc(b1-4)GlcNAc
# How it was run: as §1
# [7] = target: Neu5Ac(a2-6)Gal(b1-4)GlcNAc(b1-2)Man(a1-6)[Gal(b1-4)GlcNAc(b1-2)Man(a1-3)]Man(b1-4)GlcNAc(b1-4)GlcNAc
# How it was run: as §1
# [8] = target: Neu5Ac(a2-6)Gal(b1-4)GlcNAc(b1-2)Man(a1-6)[GlcNAc(b1-2)Man(a1-3)]Man(b1-4)GlcNAc(b1-4)GlcNAc
# How it was run: as §1
# [9] = target: Neu5Ac(a2-6)Gal(b1-4)GlcNAc(b1-2)Man(a1-6)[Man(a1-3)]Man(b1-4)GlcNAc(b1-4)GlcNAc
# How it was run: as §1
# [10] = target: Neu5Ac(a2-6)Gal(b1-4)GlcNAc(b1-2)[Neu5Ac(a2-6)Gal(b1-4)GlcNAc(b1-4)]Man(a1-3)[GlcNAc(b1-4)][Neu5Ac(a2-6)Gal(b1-4)GlcNAc(b1-2)[Neu5Ac(a2-6)Gal(b1-4)GlcNAc(b1-6)]Man(a1-6)]Man(b1-4)GlcNAc(b1-4)GlcNAc
# How it was run: as §1
# [11] = target: Neu5Ac(a2-6)Gal(b1-4)GlcNAc(b1-2)[Neu5Ac(a2-6)Gal(b1-4)GlcNAc(b1-4)]Man(a1-3)[GlcNAc(b1-4)][Neu5Ac(a2-6)Gal(b1-4)GlcNAc(b1-4)Man(a1-6)]Man(b1-4)GlcNAc(b1-4)GlcNAc
# How it was run: as §1
# [12] = target: Neu5Ac(a2-6)Gal(b1-4)GlcNAc(b1-2)[Neu5Ac(a2-6)Gal(b1-4)GlcNAc(b1-6)]Man(a1-6)[Neu5Ac(a2-6)Gal(b1-4)GlcNAc(b1-2)Man(a1-3)][GlcNAc(b1-4)]Man(b1-4)GlcNAc(b1-4)GlcNAc
# How it was run: as §1
# [13] = target: Neu5Ac(a2-6)Gal(b1-4)GlcNAc(b1-3)Gal(b1-3)GlcNAc
# How it was run: as §1
# [14] = target: Neu5Ac(a2-6)Gal(b1-4)GlcNAc(b1-3)Gal(b1-4)GlcNAc
# How it was run: as §1
# [15] = target: Neu5Ac(a2-6)Gal(b1-4)GlcNAc(b1-3)Gal(b1-4)GlcNAc(b1-2)Man(a1-3)[Neu5Ac(a2-6)Gal(b1-4)GlcNAc(b1-3)Gal(b1-4)GlcNAc(b1-2)Man(a1-6)]GalNAc
# How it was run: as §1
# [16] = target: Neu5Ac(a2-6)Gal(b1-4)GlcNAc(b1-3)Gal(b1-4)GlcNAc(b1-3)Gal(b1-4)GlcNAc
# How it was run: as §1
# [17] = target: Neu5Ac(a2-6)Gal(b1-4)GlcNAc(b1-3)Gal(b1-4)GlcNAc(b1-3)Gal(b1-4)GlcNAc(b1-2)Man(a1-3)[Neu5Ac(a2-6)Gal(b1-4)GlcNAc(b1-3)Gal(b1-4)GlcNAc(b1-3)Gal(b1-4)GlcNAc(b1-2)Man(a1-6)]GalNAc
# How it was run: as §1
# [18] = target: Neu5Ac(a2-6)Gal(b1-4)GlcNAc(b1-3)Gal(b1-4)GlcNAc(b1-3)GalNAc
# How it was run: as §1
# [19] = target: Neu5Ac(a2-6)Gal(b1-4)GlcNAc(b1-3)Gal(b1-4)GlcNAc(b1-3)[Neu5Ac(a2-6)Gal(b1-4)GlcNAc(b1-3)Gal(b1-4)GlcNAc(b1-6)]GalNAc
# How it was run: as §1
# [20] = target: Neu5Ac(a2-6)Gal(b1-4)GlcNAc(b1-3)Gal(b1-4)GlcNAc(b1-6)[Gal(b1-3)]GalNAc
# How it was run: as §1
# [21] = target: Neu5Ac(a2-6)Gal(b1-4)GlcNAc(b1-3)Gal(b1-4)[Fuc(a1-3)]GlcNAc(b1-3)Gal(b1-4)[Fuc(a1-3)]GlcNAc
# How it was run: as §1
# [22] = target: Neu5Ac(a2-6)Gal(b1-4)GlcNAc(b1-3)GalNAc
# How it was run: as §1
# [23] = target: Neu5Ac(a2-6)Gal(b1-4)GlcNAc(b1-3)[Neu5Ac(a2-6)Gal(b1-4)GlcNAc(b1-6)]GalNAc
# How it was run: as §1
# [24] = target: Neu5Ac(a2-6)Gal(b1-4)GlcNAc(b1-6)GalNAc
# How it was run: as §1
# [25] = target: Neu5Ac(a2-6)Gal(b1-4)GlcNAc(b1-6)[Gal(b1-3)GlcNAc(b1-3)]Gal(b1-4)Glc
# How it was run: as §1
# [26] = target: Neu5Ac(a2-6)Gal(b1-4)GlcNAc(b1-6)[Gal(b1-3)]GalNAc
# How it was run: as §1
# [27] = target: Neu5Ac(a2-6)Gal(b1-4)GlcNAc6S
# How it was run: as §1
# Neu5Ac(a2-6)GalNAc = target: Neu5Ac(a2-6)GalNAc
# How it was run: as §1
# [28] = target: Neu5Ac(a2-6)GalNAc(b1-4)GlcNAc
# How it was run: as §1
# [29] = target: Neu5Ac(a2-6)GalNAc(b1-4)GlcNAc6S
# How it was run: as §1
# [30] = target: Neu5Ac(a2-6)GlcNAc(b1-4)GlcNAc
# How it was run: as §1
binder,measurement,setting,value
B1,glycan array binding signal (z-score),[1],-0.267
same,glycan array binding signal (z-score),[2],-0.269
same,glycan array binding signal (z-score),[3],-0.269
same,glycan array binding signal (z-score),[4],-0.187
same,glycan array binding signal (z-score),[5],-0.251
same,glycan array binding signal (z-score),[6],-0.2
same,glycan array binding signal (z-score),[7],-0.264
same,glycan array binding signal (z-score),[8],-0.199
same,glycan array binding signal (z-score),[9],-0.265
same,glycan array binding signal (z-score),[10],-0.257
same,glycan array binding signal (z-score),[11],-0.236
same,glycan array binding signal (z-score),[12],-0.274
same,glycan array binding signal (z-score),[13],-0.165
same,glycan array binding signal (z-score),[14],-0.267
same,glycan array binding signal (z-score),[15],-0.102
same,glycan array binding signal (z-score),[16],-0.273
same,glycan array binding signal (z-score),[17],0.365
same,glycan array binding signal (z-score),[18],-0.253
same,glycan array binding signal (z-score),[19],-0.217
same,glycan array binding signal (z-score),[20],-0.258
same,glycan array binding signal (z-score),[21],-0.258
same,glycan array binding signal (z-score),[22],-0.062
same,glycan array binding signal (z-score),[23],-0.265
same,glycan array binding signal (z-score),[24],-0.126
same,glycan array binding signal (z-score),[25],-0.307
same,glycan array binding signal (z-score),[26],-0.257
same,glycan array binding signal (z-score),[27],-0.2
same,glycan array binding signal (z-score),Neu5Ac(a2-6)GalNAc,-0.271
same,glycan array binding signal (z-score),[28],-0.285
same,glycan array binding signal (z-score),[29],1.18
same,glycan array binding signal (z-score),[30],-0.323
